Results on 102 sequences are retold here after a collection of fitness landscapes (doi:10.1038/s41467-024-54723-y).

Over roughly 18,000 sequences, “TetR repression strength (sort-seq, GFP reporter)” has its median near 0.23; the highest 2% begin near 0.68. This is one part of the list.

Sequence of UniProt P04483 (P04483 whole entry): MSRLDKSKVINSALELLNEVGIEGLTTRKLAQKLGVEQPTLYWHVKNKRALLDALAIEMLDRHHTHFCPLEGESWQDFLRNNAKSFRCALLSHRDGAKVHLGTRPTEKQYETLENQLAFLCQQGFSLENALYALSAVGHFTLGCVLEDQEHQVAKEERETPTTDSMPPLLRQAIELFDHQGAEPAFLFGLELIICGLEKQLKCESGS

In the assay the target is TetR (class B, Tn10) (UniProt P04483). Briefly: TetR repression strength (sort-seq, GFP reporter) (relative to tetO2 = 1); higher = stronger repression. Conditions: E. coli. The essentials:
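E. coli SIG10-MAX carried a low-copy plasmid library with eight randomized operator positions between a constitutive promoter and sfGFP, with TetR constitutively expressed. Cells grew 5 h at 37 °C in LB with 50 µg/mL chloramphenicol, then 10^6 cells were FACS-sorted into 13 fluorescence bins, each Illumina-sequenced. Repression strength is the top bin index plus one minus the read-weighted mean bin, divided by the wild-type operator value. Three independent transformations; variants with ≥30 reads in all replicates and CV ≤0.5 were averaged.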
For TCCCTAATAGTCCATGAGA, the TetR repression strength came out at 0.352.

In the case of TCCCATATAGTGCAGGAGA, the TetR repression strength worked out at 0.0583.

Regarding TCCCATCAAGTGACGGAGA, the TetR repression strength was 0.218.

For the sequence TCCCGATGAGTTCGGGAGA, the TetR repression strength turned out to be 0.164.

TCCCTAACAGTTATTGAGA: the TetR repression strength turned out to be 0.423.

On to TCCCCATTAGTTTATGAGA, for which the TetR repression strength amounted to 0.135.

Turning to TCCCATGTAGTGGGAGAGA, the TetR repression strength came to 0.392.

In turn, TCCCATGGAGTCAGGGAGA gave a TetR repression strength of 0.332.

With TCCCGTTTAGTCCAGGAGA, the TetR repression strength came to 0.22.

For the sequence TCCCCAGGAGTAGCGGAGA, the TetR repression strength worked out at 0.137.

Turning to TCCCAGTAAGTAACGGAGA, the TetR repression strength stood at 0.12.

TCCCGCTCAGTGATAGAGA came in with a TetR repression strength of 0.742.

TCCCGTGTAGTTAGGGAGA gave a TetR repression strength of 0.467.

TCCCTTTCAGTCTCAGAGA had a TetR repression strength of 0.316.

TCCCAGGTAGTACTGGAGA returned a TetR repression strength of 0.234.

The sequence TCCCAGCGAGTAAAGGAGA returned a TetR repression strength of 0.41.

Sequence TCCCATTAAGTCAAGGAGA displayed a TetR repression strength of 0.465.

In turn, TCCCGCATAGTCGTGGAGA yielded a TetR repression strength of 0.215.

Take TCCCTTTAAGTAGCGGAGA: the TetR repression strength is 0.525.

In turn, TCCCCGTAAGTGAACGAGA returned a TetR repression strength of 0.351.

TCCCGTAAAGTAAGCGAGA yielded a TetR repression strength of 0.018.

As to TCCCAGTTAGTGAGGGAGA, the TetR repression strength came to 0.0957.

In turn, TCCCGAGTAGTAGGAGAGA returned a TetR repression strength of 0.21.

Sequence TCCCGTTAAGTCATGGAGA had a TetR repression strength of 0.0791.

The sequence TCCCCAGTAGTGCTTGAGA came in with a TetR repression strength of 0.676.

Sequence TCCCTCATAGTTGGGGAGA yielded a TetR repression strength of 0.156.

Take TCCCATACAGTTTGAGAGA: the TetR repression strength was found to be 0.373.

For TCCCTTCAAGTAACTGAGA, the TetR repression strength was 0.458.

Regarding TCCCCGGAAGTCTAAGAGA, the TetR repression strength was found to be 0.345.

Turning to TCCCGTTTAGTGGCGGAGA, the TetR repression strength was found to be 0.173.

TCCCGGTAAGTATGAGAGA: the TetR repression strength was 0.336.

Sequence TCCCCCTGAGTCGAGGAGA yielded a TetR repression strength of 0.0472.

TCCCAAGTAGTAACTGAGA gave a TetR repression strength of 0.126.

Take TCCCCTGCAGTTCTAGAGA: the TetR repression strength turned out to be 0.623.

In turn, TCCCCGGCAGTGAGGGAGA gave a TetR repression strength of 0.167.

Sequence TCCCTTCCAGTCGCCGAGA yielded a TetR repression strength of 0.399.

Consider TCCCGGCGAGTGCCAGAGA, for which the TetR repression strength turned out to be 0.216.

In turn, TCCCGAGGAGTACATGAGA showed a TetR repression strength of 0.221.

The sequence TCCCGAAAAGTGATGGAGA showed a TetR repression strength of 0.292.

Regarding TCCCCAGAAGTGTAGGAGA, the TetR repression strength was 0.177.

Sequence TCCCCATTAGTCACTGAGA returned a TetR repression strength of 0.323.

In turn, TCCCACGGAGTAAGAGAGA gave a TetR repression strength of 0.179.

TCCCCGGCAGTGGGGGAGA: the TetR repression strength came to 0.19.

Regarding TCCCGTTGAGTGTGCGAGA, the TetR repression strength was determined as 0.234.

In turn, TCCCGAGGAGTCATCGAGA gave a TetR repression strength of 0.629.

Turning to TCCCAAAGAGTAGTTGAGA, the TetR repression strength was determined as 0.104.

In turn, TCCCCGATAGTGGTGGAGA registered a TetR repression strength of 0.191.

Take TCCCAACAAGTGGAGGAGA: the TetR repression strength is 0.282.

In turn, TCCCGCTCAGTATAAGAGA registered a TetR repression strength of 0.383.

In turn, TCCCTTAGAGTGCCGGAGA yielded a TetR repression strength of 0.27.

Turning to TCCCAGTAAGTTGGAGAGA, the TetR repression strength amounted to 0.195.

TCCCCGTCAGTTTGTGAGA came in with a TetR repression strength of 0.157.

Take TCCCATTGAGTAACCGAGA: the TetR repression strength was determined as 0.308.

As for TCCCAAATAGTCTACGAGA, the TetR repression strength stood at 0.298.

Take TCCCGTTTAGTAAGGGAGA: the TetR repression strength worked out at 0.599.

On to TCCCAGAAAGTAGCTGAGA, for which the TetR repression strength stood at 0.0993.

As for TCCCAATGAGTCTCAGAGA, the TetR repression strength is 0.218.

For TCCCTGACAGTCTGAGAGA, the TetR repression strength turned out to be 0.246.

With TCCCTGGTAGTGTGGGAGA, the TetR repression strength came to 0.21.

Sequence TCCCGGCCAGTTGTGGAGA yielded a TetR repression strength of 0.374.

For TCCCGGATAGTCAATGAGA, the TetR repression strength was 0.215.

Sequence TCCCAACGAGTGCCGGAGA registered a TetR repression strength of 0.333.

Consider TCCCTGCCAGTTGAAGAGA, for which the TetR repression strength turned out to be 0.27.

TCCCCGAAAGTACAGGAGA: the TetR repression strength turned out to be 0.259.

The sequence TCCCGACTAGTAAAGGAGA came in with a TetR repression strength of 0.232.

On to TCCCCGTGAGTGGATGAGA, for which the TetR repression strength was determined as 0.137.

Take TCCCCTCCAGTGTTGGAGA: the TetR repression strength was determined as 0.415.

Sequence TCCCCTTAAGTTAGGGAGA came in with a TetR repression strength of 0.17.

In the case of TCCCAGGAAGTATGGGAGA, the TetR repression strength turned out to be 0.135.

The sequence TCCCCTGTAGTAGCAGAGA yielded a TetR repression strength of 0.214.

Regarding TCCCGGCGAGTAGGTGAGA, the TetR repression strength amounted to 0.231.

The sequence TCCCAATTAGTTTGAGAGA gave a TetR repression strength of 0.313.

TCCCGTGGAGTTGACGAGA had a TetR repression strength of 0.0573.

TCCCTTCCAGTTCGGGAGA displayed a TetR repression strength of 0.225.

TCCCATGTAGTGATGGAGA yielded a TetR repression strength of 0.184.

TCCCCGCTAGTCGGGGAGA returned a TetR repression strength of 0.0641.

Take TCCCTACGAGTTAATGAGA: the TetR repression strength is 0.253.

The sequence TCCCTCATAGTTTCCGAGA showed a TetR repression strength of 0.364.

As for TCCCAGTTAGTACGCGAGA, the TetR repression strength was 0.268.

The sequence TCCCCCAAAGTGCCAGAGA came in with a TetR repression strength of 0.202.

For TCCCCTTCAGTGTCGGAGA, the TetR repression strength was 0.169.

TCCCGTTTAGTGAGGGAGA showed a TetR repression strength of 0.175.

TCCCGCATAGTTGTTGAGA returned a TetR repression strength of 0.213.

For the sequence TCCCTCTCAGTGAGTGAGA, the TetR repression strength was determined as 0.625.

In turn, TCCCTGGTAGTGGACGAGA registered a TetR repression strength of 0.0527.

For the sequence TCCCTGCAAGTGATGGAGA, the TetR repression strength turned out to be 0.388.

The sequence TCCCGGGAAGTGAGCGAGA returned a TetR repression strength of 0.245.

TCCCTGTAAGTTCAGGAGA yielded a TetR repression strength of 0.247.

With TCCCAACAAGTAGATGAGA, the TetR repression strength was found to be 0.207.

Take TCCCCATCAGTCAATGAGA: the TetR repression strength stood at 0.361.

TCCCGCGCAGTGAGCGAGA came in with a TetR repression strength of 0.184.

For TCCCAGGTAGTAGGGGAGA, the TetR repression strength was 0.244.

In the case of TCCCGCGCAGTTCGCGAGA, the TetR repression strength amounted to 0.156.

Sequence TCCCGGGGAGTCCTCGAGA displayed a TetR repression strength of 0.242.

In the case of TCCCTTGGAGTGTGCGAGA, the TetR repression strength is 0.286.

TCCCGGGAAGTGTGTGAGA had a TetR repression strength of 0.177.

Consider TCCCTGCGAGTGAGGGAGA, for which the TetR repression strength came out at 0.194.

Consider TCCCCCGAAGTCCGAGAGA, for which the TetR repression strength came to 0.0297.

Consider TCCCGTTGAGTACCGGAGA, for which the TetR repression strength was determined as 0.396.

Consider TCCCTTATAGTGTGTGAGA, for which the TetR repression strength came out at 0.207.

TCCCACCTAGTGCGCGAGA registered a TetR repression strength of 0.258.

TCCCTACGAGTAGGGGAGA: the TetR repression strength stood at 0.172.
